Consider 54 sequences from PMC7819943, “Rice protein-binding microarrays: a tool to detect cis-acting elements near promoter regions in rice”.

Some of the results follow.

The assay concerns the target T1, OsWOX13 (Oryza sativa, UniProt Q5QMM3 1-267).
T1 sequence: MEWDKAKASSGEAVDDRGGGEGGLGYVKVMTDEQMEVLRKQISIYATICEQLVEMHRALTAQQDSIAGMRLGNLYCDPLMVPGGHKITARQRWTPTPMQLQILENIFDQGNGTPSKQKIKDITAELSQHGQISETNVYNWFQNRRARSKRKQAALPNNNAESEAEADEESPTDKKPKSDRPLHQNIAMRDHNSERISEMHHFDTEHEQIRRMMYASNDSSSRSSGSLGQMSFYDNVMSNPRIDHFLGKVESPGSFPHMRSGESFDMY
The assay is described as follows: protein-binding microarray (RPBM); PBS, 2% BSA, 51.3 ng/ul salmon testes DNA, 50 uM zinc acetate, 200 nM TF, 25 C, 1 h; high values mean tight binding. Particulars: protein: recombinant; tags: N-terminal polyhistidine and DsRed monomer fusion (pET32a); label: CyDye5-dUTP incorporated in the synthesized complementary strand; 3' TTTTT single-stranded linker to array surface; dsDNA, one strand shown. The method in brief: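 Binding signal here means per-feature fluorescence intensity in arbitrary units. The values were read on an Axon 4000B scanner after a custom Agilent array, double-stranded by primer extension with Cy5-dUTP, was incubated with 200 nM protein at 25 °C for 1 h in PBS with 2% BSA, salmon testes DNA and 50 µM zinc acetate, then washed. The proteins were transcription factors with an N-terminal polyhistidine tag and DsRed, expressed in E. coli BL21-CodonPlus and purified on Ni–NTA.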
With “TCACCCCTTCTAATTAATTAATATTATGTCATTTTCTAATCGGAGTCACCTAGTGCAG”, the binding signal was 10500 fluorescence intensity (a.u.).
Consider “GGTGGCGGGCGGAGGCGGGAGGGAGGTGACATGGATGGTCCGGAGTCACCTAGTGCAG”, for which the binding signal is 5580 fluorescence intensity (a.u.).
In the case of “GATCAAATTTACGAAAGTTATCTATCTAGACTCGTTATTTCGGAGTCACCTAGTGCAG”, the binding signal was 3320 fluorescence intensity (a.u.).
As to “CTGATTACTGGATAATCATGTTTTATAGTAAACAAATTGGCGGAGTCACCTAGTGCAG”, the binding signal was 29400 fluorescence intensity (a.u.).
With “TTGATTGATCTTTGGTTGGATGGATGCTTGATGATGTGCTCGGAGTCACCTAGTGCAG” the figure was 31900 fluorescence intensity (a.u.); with “CAAATTGAAGTGCATTATTAGTGCTACCGTGCTAGAAAGACGGAGTCACCTAGTGCAG”, 4280 fluorescence intensity (a.u.).
As for “AAAATAAATAAATAAATTTGGTAACATTGATTAATTAGGACGGAGTCACCTAGTGCAG”, the binding signal is 21200 fluorescence intensity (a.u.).
Then “ATGATGGATTTCCTTAACATGTACAGGAAACATCCGTATACGGAGTCACCTAGTGCAG”, with 5260 fluorescence intensity (a.u.); and “CCCAATTAAATAATGCCAATTGGGTTTGATCTAATGCTGGCGGAGTCACCTAGTGCAG”, with 15200 fluorescence intensity (a.u.); and “TCTTAATTTTGTTGTAATTTGTAAGCAAGATTTTAACTTTCGGAGTCACCTAGTGCAG”, with 14000 fluorescence intensity (a.u.).
With “CACATGTTATTAATTTATTATTCAAATAAACTATGCTGTCCGGAGTCACCTAGTGCAG” the figure was 8780 fluorescence intensity (a.u.).
“GACGACTTAATTAGACTCAAAATATTCGTCTCGCGGTTTCCGGAGTCACCTAGTGCAG”: the binding signal was 16000 fluorescence intensity (a.u.).
On to “GAATAAATCATTTGTAAAGCCAATTGTTCATCACAAATATCGGAGTCACCTAGTGCAG”, for which the binding signal was 5700 fluorescence intensity (a.u.).
“GATGACGGAACGAAATTACAGTTTGGATGTTTTCTTGTTCCGGAGTCACCTAGTGCAG”: the binding signal was 7720 fluorescence intensity (a.u.).
Regarding “GGTAGGAGGGTTATTGATTAATGATATAGCAAAGAATCATCGGAGTCACCTAGTGCAG”, the binding signal is 5090 fluorescence intensity (a.u.).
Regarding “ATAACATGATGAGTTCCAGCACTAGACTTGCTGATCTGTTCGGAGTCACCTAGTGCAG”, the binding signal is 4250 fluorescence intensity (a.u.).
Regarding “TTCAAATTTCAATTTGATTTATCATATATGAAACAATATTCGGAGTCACCTAGTGCAG”, the binding signal is 4000 fluorescence intensity (a.u.).
Turning to “ATGGGTGGCAAGATTGACGAACTGGACATTGCAAAACTGACGGAGTCACCTAGTGCAG”, the binding signal was 5700 fluorescence intensity (a.u.).
As for “GATAATTTGTTTGTATGTGTGTAGCTATACTAATTAGACCCGGAGTCACCTAGTGCAG”, the binding signal is 35000 fluorescence intensity (a.u.).
Take “AAAATTTGACAGATATAATTATAGTACAATTTTACTGTAACGGAGTCACCTAGTGCAG”: the binding signal was 30300 fluorescence intensity (a.u.).
For “AATGATTTTCGTATACAAATATGGTTTCACAAACCGTGTACGGAGTCACCTAGTGCAG”, the binding signal is 13700 fluorescence intensity (a.u.).
Then “GGAGATAATATAATCCAATCAGAAAGTTCATTATTTCAGGCGGAGTCACCTAGTGCAG”, with 9680 fluorescence intensity (a.u.); and “CTTAATAACTTTCTCGGATTTAATGTGTGACTCACCATTCCGGAGTCACCTAGTGCAG”, with 3340 fluorescence intensity (a.u.).
With “TCCCATTAATTATTCCAACTTTGAAACGTAGGCACATCGACGGAGTCACCTAGTGCAG”, the binding signal was 14100 fluorescence intensity (a.u.).
For “TTAAGTGATCAAATTAAGTTATCTCCTGATGACTTTGCAACGGAGTCACCTAGTGCAG”, the binding signal is 12500 fluorescence intensity (a.u.).
In the case of “GTATACTAATCAAGGTTATCATAAGTTAAGGTAGTGGATTCGGAGTCACCTAGTGCAG”, the binding signal was 5770 fluorescence intensity (a.u.).
With “AAGTAATTTGAAAGGGGCTGTAAATTGTACATTAACTTTGCGGAGTCACCTAGTGCAG”, the binding signal was 16600 fluorescence intensity (a.u.).
“ACTAAACAGAAAACACAAACTATATGAAAGCAGGCCCTACCGGAGTCACCTAGTGCAG”: the binding signal is 5910 fluorescence intensity (a.u.).
For the sequence “GAATTAGATAGAAGAGGGTTGTGATTGGATGAGAAATGATCGGAGTCACCTAGTGCAG”, the binding signal is 10800 fluorescence intensity (a.u.).
Then “GTTCTTCTTAATGAAGTTAATTTACATGTGTATTTTGACCCGGAGTCACCTAGTGCAG”, with 7650 fluorescence intensity (a.u.).
For the sequence “TAAAATTGCATGTGATCATTTTGTAAGCTAAACTTTTATTCGGAGTCACCTAGTGCAG”, the binding signal is 11600 fluorescence intensity (a.u.).
For the sequence “CATCAGTAATTGAGCGCCGCGGCGGCGGAGGCGGGCGAGGCGGAGTCACCTAGTGCAG”, the binding signal is 10500 fluorescence intensity (a.u.).
Take “TTAATGATTAGTATGTAGTATATAGTTAACTATTCTAGAGCGGAGTCACCTAGTGCAG”: the binding signal is 29300 fluorescence intensity (a.u.).
“TTTCAAGAGATTAATTAATTTTCTCAACTTTGCAAGGGCACGGAGTCACCTAGTGCAG”: the binding signal is 16000 fluorescence intensity (a.u.).
Then “CTGAAATTTCCAATCATCTTGCGTGTGCAAGACAGCAAAGCGGAGTCACCTAGTGCAG”, with 41100 fluorescence intensity (a.u.); and “GCCTACCAATCTAATCCAGTACTACAAACAAAGTCAAACACGGAGTCACCTAGTGCAG”, with 3780 fluorescence intensity (a.u.); and “TAGACTTATTTAGACTGGGAGATGAATCAGTGTGGCCCACCGGAGTCACCTAGTGCAG”, with 3430 fluorescence intensity (a.u.).
With “GATAAATTGTTACTCCACCACTCTACAGATTATATTTAAACGGAGTCACCTAGTGCAG”, the binding signal is 6740 fluorescence intensity (a.u.).
On to “AGCAAACTAACTGTTAAACTTCCTGTATAAATATGCATGGCGGAGTCACCTAGTGCAG”, for which the binding signal is 4330 fluorescence intensity (a.u.).
With “TAATTCCAAATTAATTTAAATGCGCTATTTGCTTAACCAGCGGAGTCACCTAGTGCAG” the figure was 18000 fluorescence intensity (a.u.); with “CGTGATGGGACATTACCTAGTACTACGATAATGTCTCATCCGGAGTCACCTAGTGCAG”, 4830 fluorescence intensity (a.u.).
In the case of “AGAAAATAAAATTGATCAAACAAATCCTCAGGTTAAGGATCGGAGTCACCTAGTGCAG”, the binding signal is 5480 fluorescence intensity (a.u.).
As to “TGATTTGATTTGTTGTCTGCTCGTCTGCTGCGAAGATCAACGGAGTCACCTAGTGCAG”, the binding signal was 26400 fluorescence intensity (a.u.).
As to “TTATAAAATATAATTTATCTGTTATATGTTACATGGAATACGGAGTCACCTAGTGCAG”, the binding signal is 7650 fluorescence intensity (a.u.).
“AAAAGGATCCTCAAAGTTTATGGTATTTGTTGTATGACATCGGAGTCACCTAGTGCAG”: the binding signal is 7860 fluorescence intensity (a.u.).
“AAGTAGAGTGACAATTATATCTGATATGGGATGTTTTATGCGGAGTCACCTAGTGCAG”: the binding signal is 7650 fluorescence intensity (a.u.).
With “CCTAACATAATTTAAAGTGTTAATTGGATACATGTCACTGCGGAGTCACCTAGTGCAG”, the binding signal was 50900 fluorescence intensity (a.u.).
Take “CATAAGCAGTAATTACGGAGTACCGTACAAGTTTAGAGTCCGGAGTCACCTAGTGCAG”: the binding signal was 3190 fluorescence intensity (a.u.).
As for “TCGATAATTCCGAGGGATTAGTCGATGATTCAGAGGAGCTCGGAGTCACCTAGTGCAG”, the binding signal is 3920 fluorescence intensity (a.u.).
With “GTAACACAGATTAATCATCCACAGATTAAACAAAGGAGAACGGAGTCACCTAGTGCAG” the figure was 6610 fluorescence intensity (a.u.); with “CTTCATCATTCTGTTATGATCATCTAAATTTTGTACTCCACGGAGTCACCTAGTGCAG”, 3260 fluorescence intensity (a.u.); with “ATATATATATATATATATATATTCATTAACATCAATATGTCGGAGTCACCTAGTGCAG”, 26300 fluorescence intensity (a.u.).
“ACGAAACTGGTCCTAAACTGGAGCAGCAGTCACGGATAAACGGAGTCACCTAGTGCAG”: the binding signal is 5320 fluorescence intensity (a.u.).
“AGTATGATTATAGAAATGGACGTTTCAGATTTGTTTACGTCGGAGTCACCTAGTGCAG”: the binding signal is 31100 fluorescence intensity (a.u.).
